Measurements reported in the supplement of paper PMC4466236.
Whole data set: some 33,000 sequences, median “E-score (dimensionless, -0.5 to 0.5)” near -0.058, cut for the highest 2% near 0.35. The list shows a part of the results.

System: MvaT
Assay: PBM 8-mer E-score (mean of HK and ME arrays) (E-score (dimensionless, -0.5 to 0.5)); higher = stronger relative binding preference; most listed sequences are background and not binding sites
Method in brief: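 Full-length P. aeruginosa MvaT carrying an N-terminal glutathione S-transferase tag was tested by protein binding microarray following a previously described protocol. Two universal double-stranded 60-mer arrays, ME and HK, were used, each with a constant 25-mer primer region and a variable 35-mer region covering all 8-mers. The rank-based E-score is the mean of the two arrays, parsed with a custom script. Its range runs from -0.5 to 0.5 for each 8-mer.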

First: ATACTCTA
Second: GTCGCCGA
The “PBM 8-mer E-score” value of the first is higher: 0.206 for the first, -0.124 for the second.

Compared with AACCCGTC, GCAGTAAC is lower in “PBM 8-mer E-score” value: -0.0101 for the first, -0.0164 for the second.

Going from AAAGATAC to AGAGGGGC, the “PBM 8-mer E-score” value falls from 0.0547 to -0.265.

First: GCTGTAAC
Second: AATCACCC
The “PBM 8-mer E-score” value of the first is higher: 0.00489 for the first, -0.116 for the second.

Going from AAGGCAAC to ACGGGACA, the “PBM 8-mer E-score” value falls from 0.0918 to -0.0659.

First: CAGATTTA
Second: AAGGTCGC
The “PBM 8-mer E-score” value of the first is higher: 0.238 for the first, -0.148 for the second.

Going from ACAGATCT to CTATTCAG, the “PBM 8-mer E-score” value rises from -0.0219 to 0.000141.

First: ACCGCCTC
Second: ATATATCA
The “PBM 8-mer E-score” value of the first is lower: -0.258 for the first, 0.427 for the second.

First: AATTGAGG
Second: AAGATCCT
The “PBM 8-mer E-score” value of the first is higher: 0.157 for the first, -0.18 for the second.

Going from GCCCAAGA to AGTTGGCC, the “PBM 8-mer E-score” value rises from -0.225 to 0.017.

Compared with GCTTCCAC, CGGGCGCC is lower in “PBM 8-mer E-score” value: -0.205 for the first, -0.289 for the second.

Going from ATGCCAGA to GTGCATAA, the “PBM 8-mer E-score” value rises from -0.158 to 0.193.

Compared with GTGGTCCA, ACCAAACT is higher in “PBM 8-mer E-score” value: -0.131 for the first, 0.0981 for the second.

First: ACCATGAA
Second: GGCGCTCA
The “PBM 8-mer E-score” value of the first is higher: -0.0165 for the first, -0.203 for the second.

Compared with CTAACAGA, CACCCGAG is lower in “PBM 8-mer E-score” value: 0.00653 for the first, -0.206 for the second.

Compared with ACTTGGCT, AGCTATTC is lower in “PBM 8-mer E-score” value: 0.0613 for the first, -0.0785 for the second.

Compared with ACAACAAT, ATGCAGTC is lower in “PBM 8-mer E-score” value: 0.372 for the first, -0.089 for the second.

Compared with GATCTCCC, CCCAAGAG is higher in “PBM 8-mer E-score” value: -0.213 for the first, -0.121 for the second.

Going from AGGGCACC to AGAAGCCG, the “PBM 8-mer E-score” value falls from -0.22 to -0.228.

Going from AGCTCCTG to AATAAAGG, the “PBM 8-mer E-score” value rises from -0.244 to 0.228.

Going from TGAGTTAA to CGCAGAGA, the “PBM 8-mer E-score” value falls from 0.272 to -0.271.

Going from GGTGAAAA to AATAAATA, the “PBM 8-mer E-score” value rises from 0.082 to 0.434.

Compared with AGCGACTC, GTGGTGTA is higher in “PBM 8-mer E-score” value: -0.288 for the first, 0.173 for the second.

First: GCTAGTCA
Second: CAAAATAG
The “PBM 8-mer E-score” value of the first is lower: -0.0847 for the first, 0.166 for the second.

Compared with AGCATGGA, AGCGACAG is higher in “PBM 8-mer E-score” value: -0.19 for the first, -0.0961 for the second.

First: TGAATACA
Second: CATCAAGA
The “PBM 8-mer E-score” value of the first is higher: 0.128 for the first, -0.0894 for the second.

Compared with AACGTAAC, AAAAGTCT is higher in “PBM 8-mer E-score” value: 0.121 for the first, 0.157 for the second.

In the case of CAGGGCAA, the “PBM 8-mer E-score” value is reported as -0.203.
